# In the supplement of paper PMC8728848:
# The list shows a part of the results.
# B1: ConA (Canavalia ensiformis), P02866 (protein)
# chain: MAISKKSSLFLPIFTFITMFLMVVNKVSSSTHETNALHFMFNQFSKDQKDLILQGDATTGTDGNLELTRVSSNGSPQGSSVGRALFYAPVHIWESSAVVASFEATFTFLIKSPDSHPADGIAFFISNIDSSIPSGSTGRLLGLFPDANVIRNSTTIDFNAAYNADTIVAVELDTYPNTDIGDPSYPHIGIDIKSVRSKKTAKWNMQNGKVGTAHIIYNSVDKRLSAVVSYPNADSATVSYDVDLDNVLPEWVRVGLSASTGLYKETNTILSWSFTSKLKSNEIPDIATVV
# Columns and labels:
# Test in all cases: glycan array binding signal (z-score within array); higher = stronger binding
# Settings in all cases: glycan notation: IUPAC condensed, linker removed
# [1] = target: Fuc(a1-3)[Gal(b1-4)]GlcNAc(b1-2)Man(a1-3)[Fuc(a1-3)[Gal(b1-4)]GlcNAc(b1-2)Man(a1-6)]Man(b1-4)GlcNAc(b1-4)GlcNAc
# Procedure, shortened: (§1)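 From the Consortium for Functional Glycomics database, 3228 arrays were curated, keeping only those whose protein sequence was available. Binding is given as a within-array Z-score averaged across arrays sharing a protein sequence and across linkers. Negative Z-scores can be read as non-binding.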
# [2] = target: Fuc(a1-3)[Gal(b1-4)]GlcNAc(b1-2)Man(a1-3)[Fuc(a1-3)[Gal(b1-4)]GlcNAc(b1-2)Man(a1-6)]Man(b1-4)GlcNAc(b1-4)[Fuc(a1-6)]GlcNAc
# Procedure, shortened: as §1
# [3] = target: Fuc(a1-3)[Gal(b1-4)]GlcNAc(b1-3)Gal(b1-3)[Fuc(a1-4)]GlcNAc
# Procedure, shortened: as §1
# [4] = target: Fuc(a1-3)[Gal(b1-4)]GlcNAc(b1-3)GalNAc
# Procedure, shortened: as §1
# [5] = target: Fuc(a1-3)[Gal(b1-4)]GlcNAc(b1-4)Gal(b1-4)[Fuc(a1-3)]GlcNAc
# Procedure, shortened: as §1
# [6] = target: Fuc(a1-3)[Gal(b1-4)]GlcNAc(b1-4)Gal(b1-4)[Fuc(a1-3)]GlcNAc(b1-4)Gal(b1-4)[Fuc(a1-3)]GlcNAc
# Procedure, shortened: as §1
# [7] = target: Fuc(a1-3)[Gal(b1-4)]GlcNAc(b1-6)GalNAc
# Procedure, shortened: as §1
# [8] = target: Fuc(a1-3)[Gal(b1-4)]GlcNAc(b1-6)[Gal(b1-3)GlcNAc(b1-3)]Gal(b1-4)Glc
# Procedure, shortened: as §1
# [9] = target: Fuc(a1-3)[Gal(b1-4)]GlcNAc(b1-6)[Neu5Ac(a2-3)Gal(b1-3)]GalNAc
# Procedure, shortened: as §1
# [10] = target: Fuc(a1-3)[Gal(b1-4)]GlcNAc6S
# Procedure, shortened: as §1
# [11] = target: Fuc(a1-3)[Gal3S(b1-4)]GlcNAc
# Procedure, shortened: as §1
# [12] = target: Fuc(a1-3)[Gal3S(b1-4)]GlcNAc6S
# Procedure, shortened: as §1
# [13] = target: Fuc(a1-3)[GalNAc(b1-4)]GlcNAc
# Procedure, shortened: as §1
# [14] = target: Fuc(a1-4)GlcNAc
# Procedure, shortened: as §1
# [15] = target: Fuc(b1-3)GlcNAc
# Procedure, shortened: as §1
# [16] = target: Gal(a1-2)Gal
# Procedure, shortened: as §1
# [17] = target: Gal(a1-3)Gal
# Procedure, shortened: as §1
# [18] = target: Gal(a1-3)Gal(b1-3)GlcNAc
# Procedure, shortened: as §1
# [19] = target: Gal(a1-3)Gal(b1-3)GlcNAc(b1-2)Man(a1-3)[Gal(a1-3)Gal(b1-3)GlcNAc(b1-2)Man(a1-6)]Man(b1-4)GlcNAc(b1-4)GlcNAc
# Procedure, shortened: as §1
# [20] = target: Gal(a1-3)Gal(b1-3)GlcNAc(b1-3)GalNAc
# Procedure, shortened: as §1
# [21] = target: Gal(a1-3)Gal(b1-3)[Fuc(a1-4)]GlcNAc(b1-2)Man(a1-3)[Gal(a1-3)Gal(b1-3)[Fuc(a1-4)]GlcNAc(b1-2)Man(a1-6)]Man(b1-4)GlcNAc(b1-4)GlcNAc
# Procedure, shortened: as §1
# [22] = target: Gal(a1-3)Gal(b1-4)Glc
# Procedure, shortened: as §1
# [23] = target: Gal(a1-3)Gal(b1-4)GlcNAc
# Procedure, shortened: as §1
# [24] = target: Gal(a1-3)Gal(b1-4)GlcNAc(b1-3)GalNAc
# Procedure, shortened: as §1
# [25] = target: Gal(a1-3)Gal(b1-4)[Fuc(a1-3)]GlcNAc
# Procedure, shortened: as §1
# [26] = target: Gal(a1-3)Gal(b1-4)[Fuc(a1-3)]GlcNAc(b1-2)Man(a1-3)[Gal(a1-3)Gal(b1-4)[Fuc(a1-3)]GlcNAc(b1-2)Man(a1-6)]Man(b1-4)GlcNAc(b1-4)GlcNAc
# Procedure, shortened: as §1
# [27] = target: Gal(a1-3)GalNAc
# Procedure, shortened: as §1
# [28] = target: Gal(a1-3)[Gal(a1-4)]Gal(b1-4)GlcNAc
# Procedure, shortened: as §1
# [29] = target: Gal(a1-4)Gal(b1-3)GlcNAc(b1-2)Man(a1-3)[Gal(a1-4)Gal(b1-3)GlcNAc(b1-2)Man(a1-6)]Man(b1-4)GlcNAc(b1-4)GlcNAc
# Procedure, shortened: as §1
# [30] = target: Gal(a1-4)Gal(b1-4)Glc
# Procedure, shortened: as §1
# [31] = target: Gal(a1-4)Gal(b1-4)GlcNAc
# Procedure, shortened: as §1
# [32] = target: Gal(a1-4)Gal(b1-4)GlcNAc(b1-2)Man(a1-3)[Gal(a1-4)Gal(b1-4)GlcNAc(b1-2)Man(a1-6)]Man(b1-4)GlcNAc(b1-4)GlcNAc
# Procedure, shortened: as §1
# [33] = target: Gal(a1-4)Gal(b1-4)GlcNAc(b1-3)Gal(b1-4)Glc
# Procedure, shortened: as §1
# [34] = target: Gal(a1-4)GlcNAc
# Procedure, shortened: as §1
# [35] = target: Gal(a1-6)Glc
# Procedure, shortened: as §1
# [36] = target: Gal(b1-2)Gal
# Procedure, shortened: as §1
# [37] = target: Gal(b1-3)Gal
# Procedure, shortened: as §1
binder,measurement,setting,value
B1,glycan array binding signal (z-score),[1],-0.171
same,glycan array binding signal (z-score),[2],-0.25
same,glycan array binding signal (z-score),[3],0.051
same,glycan array binding signal (z-score),[4],-0.122
same,glycan array binding signal (z-score),[5],-0.2
same,glycan array binding signal (z-score),[6],-0.3
same,glycan array binding signal (z-score),[7],-0.107
same,glycan array binding signal (z-score),[8],-0.165
same,glycan array binding signal (z-score),[9],-0.159
same,glycan array binding signal (z-score),[10],-0.214
same,glycan array binding signal (z-score),[11],-0.253
same,glycan array binding signal (z-score),[12],-0.234
same,glycan array binding signal (z-score),[13],-0.292
same,glycan array binding signal (z-score),[14],-0.301
same,glycan array binding signal (z-score),[15],-0.239
same,glycan array binding signal (z-score),[16],-0.281
same,glycan array binding signal (z-score),[17],-0.255
same,glycan array binding signal (z-score),[18],-0.281
same,glycan array binding signal (z-score),[19],-0.035
same,glycan array binding signal (z-score),[20],-0.168
same,glycan array binding signal (z-score),[21],-0.024
same,glycan array binding signal (z-score),[22],-0.229
same,glycan array binding signal (z-score),[23],-0.247
same,glycan array binding signal (z-score),[24],-0.276
same,glycan array binding signal (z-score),[25],-0.222
same,glycan array binding signal (z-score),[26],-0.227
same,glycan array binding signal (z-score),[27],-0.181
same,glycan array binding signal (z-score),[28],-0.281
same,glycan array binding signal (z-score),[29],0.48
same,glycan array binding signal (z-score),[30],-0.293
same,glycan array binding signal (z-score),[31],-0.283
same,glycan array binding signal (z-score),[32],0.321
same,glycan array binding signal (z-score),[33],-0.262
same,glycan array binding signal (z-score),[34],-0.29
same,glycan array binding signal (z-score),[35],-0.29
same,glycan array binding signal (z-score),[36],-0.287
same,glycan array binding signal (z-score),[37],-0.28
